Results taken from PMC6919601, “Identification of Plasmodium dipeptidyl aminopeptidase allosteric inhibitors by high throughput screening” (PLoS ONE, 2019).
“And” between values parts separate entries of the source, which are not always exact repeats. Equal values may be shown once. The campaign covered roughly 110,000 compounds. About 230 (0.21%) showed an effect of 50% or more. The list shows a part of the results.

Biological target: DPAP1 (Plasmodium falciparum, UniProt Q8IIJ9)
Test: primary screen, percent inhibition; read by cleavage of a fluorogenic dipeptide substrate; higher = more effect of the substance
Design: species or system P. falciparum D10 trophozoite lysates; single well
Description: HTS was performed in black 384-well plates. The first and last two columns of each plate contained our negative (DMSO) and positive (10 μM JCP410) controls, and the 20 central columns the test compounds at 10 μM. Compounds were first diluted 50-fold into assay buffer (50 mM sodium acetate, 5 mM MgCl2, 10 mM β-mercaptoethanol, and 0.1% CHAPS, pH 5.5) from a 10 mM DMSO stock plates. One microliter of this 200 μM intermediate stock plate was dispensed into the assay plate. […] After 30 min, the reaction was quenched with 20 μL of 0.5 M acetic acid, and the fluorescent intensity measured at 523 nm (λex = 492 nm) using an Analyst HT multimode plate reader (Molecular Devices).
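Also: 30 min substrate incubation versus DMSO and 10 µM JCP410 controls.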

Chain of DPAP1 (Q8IIJ9 whole entry, looked up): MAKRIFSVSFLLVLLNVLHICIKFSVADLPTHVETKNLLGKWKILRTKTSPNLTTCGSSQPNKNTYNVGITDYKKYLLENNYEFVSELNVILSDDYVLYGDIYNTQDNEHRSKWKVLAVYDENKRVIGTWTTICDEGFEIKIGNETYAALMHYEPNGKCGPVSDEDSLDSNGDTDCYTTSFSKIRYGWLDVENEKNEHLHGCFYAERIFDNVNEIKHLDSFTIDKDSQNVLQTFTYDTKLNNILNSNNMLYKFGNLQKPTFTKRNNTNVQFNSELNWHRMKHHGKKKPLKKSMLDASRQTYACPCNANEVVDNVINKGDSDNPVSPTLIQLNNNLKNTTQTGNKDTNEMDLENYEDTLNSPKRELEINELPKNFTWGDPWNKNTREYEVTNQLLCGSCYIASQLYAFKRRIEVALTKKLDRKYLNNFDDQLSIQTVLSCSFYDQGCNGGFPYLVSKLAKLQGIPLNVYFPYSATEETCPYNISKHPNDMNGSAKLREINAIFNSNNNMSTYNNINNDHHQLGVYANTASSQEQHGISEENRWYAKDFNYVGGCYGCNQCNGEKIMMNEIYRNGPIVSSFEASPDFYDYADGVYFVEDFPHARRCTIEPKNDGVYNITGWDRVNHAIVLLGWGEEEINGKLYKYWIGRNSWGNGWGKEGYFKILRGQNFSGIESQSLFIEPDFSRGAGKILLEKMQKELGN

Row | SMILES | % Inhibition @ 10 uM
1 | Cc1ccc(C2C(C(=O)c3ccccc3)=C(N)OC3=C2C(=O)CCC3)cc1 (stereo not drawn) | -2.87%
2 | COC(=O)C1=C(C)N=c2s/c(=C\c3ccccc3F)c(=O)n2C1/C=C/c1ccccc1 (stereo not drawn) | 1.88%
3 | COc1ccccc1N1CCN(Cc2cc(Br)cs2)CC1 | 3.8%
4 | CC1CN(c2oc(/C=C/c3ccc(F)cc3)nc2C#N)CC(C)O1 (stereo not drawn) | -0.808%
5 | CCc1nnc(C(=O)[C@H](CC)NC(=O)[C@H](CC2CCCCC2)OC(=O)N2CCOCC2)o1 | -1.82%
6 | CCOc1ccc(-c2nonc2NC(=O)Cc2ccc(OC)cc2)cc1 | 5.39%
7 | CNC(=O)/C(C#N)=C/c1c(Oc2ccc(C)cc2)nc2c(C)cccn2c1=O | -1.65%
8 | O=C(O)Cc1nnc(-c2ccc3c(c2)OCO3)o1 | -2.41%
9 | CCc1cccc(CC)c1NC(=O)CSc1nc(N)cc(N)n1 | -2.88% and -0.519%
10 | O=C1OC(c2ccccc2)c2ccccc21 (stereo not drawn) | -2.18%
11 | CN(C1=NC(=O)/C(=C2\C(=O)Nc3ccccc32)S1)c1ccc(O)cc1 | 10.5%
12 | CCOC(=O)c1ccc(CN2C(=O)c3ccccc3C2(O)c2ccc(Cl)cc2)o1 (stereo not drawn) | 2.72%
13 | Cc1sc(NC(=O)COc2ccc(Cl)cc2Cl)c(C#N)c1C | 1.25%
14 | COc1ccc(NCC(=O)Nc2ccc(Cl)cc2C)c(OC)c1 | -0.564%
15 | CCOC(=O)N[C@@H](C)Cc1ccccc1 | 0.968%
16 | CCOc1ccc(NC(=O)/C(=C/c2ccc(C)o2)NC(=O)c2ccccc2)cc1 | 2.7%
17 | COc1ccc(NC(=O)c2sc3ccccc3c2Cl)c(OC)c1 | -9.49%
18 | CCn1c(SCc2ccccc2)nc2ccccc2c1=O | 4.59%
19 | O=C(COc1ccc(N2C(=O)C3C4CCC(C4)C3C2=O)cc1)c1ccccc1 (stereo not drawn) | -4.68%
20 | CN1CCN(c2ncnc3c2cnn3Cc2ccccc2)CC1 | -8.67%
21 | CN(c1ccc(C(=O)Nc2ccc(F)cc2)cc1)S(C)(=O)=O | -1.51%
22 | COc1ccccc1NC(=O)Nc1ccccc1 | 5.77%
23 | CCOC(=O)C(C(=O)NCc1ccccc1)C1CCCCC1 (stereo not drawn) | 4.15%
24 | COc1ccc2nc(-c3ccccc3)n(C)c2c1OC | -4.32%
25 | Cc1ccc2c(c1)-c1onc(C(=O)NCCN(C)C)c1CO2 | -4.37%
26 | CCN1CCN(c2cc3c(nn2)Oc2ccccc2N3C)CC1 | 3.47%

Row | SMILES | % Inhibition @ 10 uM
27 | O=C(CSc1nnnn1-c1ccccc1)c1ccc(Br)cc1 | -1.84%
28 | CCCCN(C(=O)Cn1ncc2c1-c1cc(C)ccc1OC2)C1CCN(C(C)=O)CC1 | -1.69%
29 | CCCCc1c(O)n2c(nc1=O)sc1cc(OC)ccc12 | -4.67%
30 | O=C(CCN1CCOCC1)Nc1ccc2c(c1)N(C(=O)CN1CCOCC1)c1ccccc1CC2 | 2.86%
31 | O=C(c1cccs1)N1N=C(c2ccccc2)CC1c1ccccc1 (stereo not drawn) | 5.19%
32 | CCN(CC)CCNC(=O)CCS(=O)(=O)Cc1ccc(C)cc1 | -1.21%
33 | COc1ccc(CN2CCN(Cc3ccc(OC)c(OC)c3)CC2)c(OC)c1 | -5.26%
34 | Cn1c(=O)c2sccc2n2c(CCC(=O)NC3CCCC3)nnc12 | 3.61%
35 | COc1nc2c([nH]1)OC(N)=C(C#N)C2c1ccccc1C(C)(C)C (stereo not drawn) | 2.76%
36 | CC(C)Cn1c(=O)c2ccccc2n2c(CCC(=O)NCc3cccnc3)nnc12 | -4.21%
37 | Cc1ccc(Cl)cc1NC(=O)c1ccc(N(Cc2ccccc2)S(C)(=O)=O)cc1 | 0.87%
38 | CN1CC2(C)CN(C)CC(C)(C1)C2O (stereo not drawn) | -2.36%
39 | Cc1ccc(Cn2c(C)c3cnn(CC(=O)NCCc4ccccc4)c(=O)c3c2C)cc1 | 1.22%
40 | CCC(=O)Nc1nonc1-c1nc2ccccc2n1CC(C)C | -2.74%
41 | O=C(O)C1CCCN1S(=O)(=O)c1ccc([N+](=O)[O-])cc1 (stereo not drawn) | 4.63%
42 | O=C(Nc1ccccc1C(=O)O)c1cccc(S(=O)(=O)NCc2ccccc2)c1 | 4.8%
43 | c1ccc(Cn2nnc3c(NCc4ccc5c(c4)OCO5)ncnc32)cc1 | 2.57%
44 | CNC(=O)/C(=C\c1ccc2c(c1)OCO2)NC(=O)c1ccc(Br)cc1 | 2.38%
45 | CC1CCc2c(sc(N)c2C(=O)Nc2ccccc2)C1 (stereo not drawn) | 19.2%
46 | COc1ccc(C(=O)O)cc1OCc1ccc2ccccc2n1 | -9.29%
47 | CC1CCCCN1C(=O)c1cc(-c2ccccc2)nc2ccccc12 (stereo not drawn) | -5.92%
48 | CCOC(=O)c1cc(-c2ccc(OC)c(S(=O)(=O)Nc3ncccc3C)c2)on1 | -0.127%
49 | CO/C(O)=C1\C(C)=NC(=S)NC1c1cc(OC)c(OC)cc1OC (stereo not drawn) | -4.32%
50 | COc1ccc(CN2CCc3ccccc3C2)c(OC)c1C | -5.41%
51 | CC(C)c1c(C#N)c(N)nc(SCC(=O)c2ccc(-c3ccccc3)cc2)c1C#N | -0.736%
52 | Cc1ccc2oc(=O)c3cnn(CC(=O)NCCN(C)Cc4ccccc4)c3c2c1 | -3.45%

Row | SMILES | % Inhibition @ 10 uM
53 | CN1CCCN(C(=O)/C(=C/c2ccco2)NC(=O)c2ccccc2)CC1 | -2.8%
54 | CCOCCCNC(=O)N(Cc1ccc(OC)cc1)C1CCN(C(C)=O)CC1 | 2.72%
55 | OCCN(CCO)Cn1c(=S)oc2ccccc21 | 11.6%
56 | Cc1cccc(N(CC(=O)Nc2cccc(N(C)S(C)(=O)=O)c2)S(=O)(=O)c2ccccc2)c1 | 1.88%
57 | OC1(c2ccc(Cl)cc2)CSC2=NCCN21 (stereo not drawn) | 2.06%
58 | CN1CCN(C(=O)/C(=C/c2ccc(F)cc2)NC(=O)c2ccccc2)CC1 | 5.31%
59 | O=S(=O)(c1ccc(F)cc1)N1CCSC1c1ccc(OCc2ccccc2)cc1 (stereo not drawn) | 1.63%
60 | CN1CCN(c2ccncc2S(=O)(=O)N2CCCCC2)CC1 | -5.21%
61 | Cc1ccc(C)c(NC(=O)c2c(Cl)cnn2C)c1 | -1.08%
62 | COc1ccc2cc(Br)ccc2c1CC(=O)Nc1ccccc1F | 2.64%
63 | CC(C)OCCCNC(=O)C(=O)NCCc1c[nH]c2ccccc12 | -0.0735%
64 | COc1ccc2ccccc2c1CN1CCSCC1 | 1.26%
65 | COc1ccc(C(=O)Nc2ccc(Cl)cc2Cl)cc1 | 5.09%
66 | O=C(NCc1ccccc1)c1cc2ncc(Br)cn2n1 | 1.87%
67 | COCCCNC(=O)Nc1cnc2ccccn2c1=O | 0.401%
68 | Cc1c(CO)c2ccccc2n1Cc1ccc(Br)cc1 | 2.1%
69 | NC(=O)c1ccccc1Nc1cccc(Cl)c1 | -0.116%
70 | CCOc1ccc(Br)cc1S(=O)(=O)NC1CC(C)(C)NC(C)(C)C1 | 0.324%
71 | CC1=C(C#N)c2nc(N)c(C#N)c(C)c2/C1=C/c1cc(Cl)c(OCC(=O)O)c(Cl)c1 | 20.8%
72 | O=C(NCCCN1CCOCC1)c1cc(-c2ccccc2F)no1 | -3.57%
73 | CCOC(=O)c1c(NC(=O)C(CC)Sc2nc(C)cc(C)n2)sc2c1CCCC2 (stereo not drawn) | 5.98%
74 | COc1ccc(C2=N/C(=C/c3cccnc3)C(=O)O2)cc1Br | 3.42%
75 | COc1cccc(NC(=O)c2cc(-c3ccco3)nc3ccccc23)c1 | 2.06%
76 | CCOC(=O)C1=C(C)N(c2ccc(C)c(C)c2)C(=O)C1 | -2.18%
77 | CC(NC(=O)Cn1ncc2c3ccccc3n(Cc3ccccc3)c2c1=O)c1ccc2c(c1)OCCO2 (stereo not drawn) | 0.137%
78 | COC(=O)c1cn(CC(=O)N2CCc3ccccc3C2)c2ccccc12 | -5.51%

Row | SMILES | % Inhibition @ 10 uM
79 | Cc1ccc(CCNc2ccccc2)cn1 | -0.744%
80 | COc1ccc(-n2cc(C(=O)c3cccc(Br)c3)c(C(C)=O)n2)cc1 | -9.59%
81 | FC(F)(F)c1ccc(Cl)c(N2CC(c3ccccc3)C(c3cccs3)=N2)c1 (stereo not drawn) | -1.5%
82 | CC(Oc1ccc(Cl)cc1Cl)C(=O)Nc1nc2c(s1)C(=O)CC(C)(C)C2 (stereo not drawn) | -3.27%
83 | O=C(Nc1ccc2c(c1)OCO2)c1sc2ccccc2c1Cl | 1.38%
84 | Cc1cccc(CN2CCN(CC(=O)NCC3COc4ccccc4O3)C2=O)c1 (stereo not drawn) | -2.41%
85 | CCC(C(=O)N1CCC(C)CC1)n1nc(C)c2sc3ccccc3c2c1=O (stereo not drawn) | 1.91%
86 | COc1ccc(-c2nnc3s/c(=C\c4ccccc4)c(=O)n23)cc1 | -1.78%
87 | C=CCOc1ccccc1CN(C)C1CCN(C)CC1 | 1.74%
88 | COc1ccc(N2CCN(Cc3cc(OC)c(O)c(OC)c3)CC2)cc1 | -2.81%
89 | c1ccc2c(c1)c(N1CCCC1)nn1nnnc21 | 1.49%
90 | CSC1=C(C#N)C(c2ccc(Cl)cc2Cl)CC(=O)N1 (stereo not drawn) | -0.436%
91 | CCn1c(NCc2cc(OC)c(OC)c(OC)c2)nc2ccccc21 | 2.3%
92 | CC1=CSC2=NC(=O)/C(=C/c3cc(C)n(-c4cccc(C(F)(F)F)c4)c3C)C(=N)N12 | -2.98%
93 | Cn1c(=O)c2nc(-c3ccc(OCC(=O)NCC4CCCO4)cc3)[nH]c2n(C)c1=O (stereo not drawn) | -5.2%
94 | COC(=O)c1ccccc1NC(=O)c1ccc(C(C)(C)C)cc1 | 3.72%
95 | O=C(CCC(=O)N1Cc2ccccc2Oc2ncccc21)NC1CCCC1 | 6.29%
96 | COc1ccc(CNC(=O)c2nc(CS(=O)(=O)c3ccccc3)no2)cc1OC | -3.07%
97 | CC1(C)CC(=O)c2cc(OCC(=O)NCc3cccnc3)ccc2O1 | -6.26%
98 | C=CCN1C(=O)c2ccc(F)cc2C1=O | -2.44%
99 | CS(=O)(=O)N(CC(=O)NCc1ccccc1Cl)c1cccc(F)c1 | 9.94%
100 | O=C(O)CSC12CC3CC(CC(C3)C1)C2 | -0.415%
101 | CCCc1ccc(S(=O)(=O)N2CCN(c3ncccn3)CC2)cc1 | -3.49%
102 | COc1ccccc1N1CCN(C(=O)c2c(-c3c(F)cccc3Cl)noc2C)CC1 | -5.92%
